Experimental data: patent US20210347852A1 (Regeneron, published 2021)

Key:
[1] = molecular target: T1, Human VEGF165 (REGN110) (human, UniProt P15692-4 27-191); assay: SPR (Biacore 3000), 25C, trap captured by REGN18, hVEGF165 injected
T1 construct: also called hVEGF165; REGN110-L9
T1 sequence (looked up): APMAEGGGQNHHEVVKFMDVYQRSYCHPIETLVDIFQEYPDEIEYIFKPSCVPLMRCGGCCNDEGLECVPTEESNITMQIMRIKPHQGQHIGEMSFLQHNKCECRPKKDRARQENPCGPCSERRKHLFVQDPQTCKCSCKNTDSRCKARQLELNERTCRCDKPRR
Experimental: (§1) Equilibrium dissociation constants (KD values) for human VEGF₁₆₅ binding to various purified VEGF mini-trap constructs were determined using a real-time surface plasmon resonance biosensor using a Biacore 3000 instrument. All binding studies were performed in 10 mM HEPES, 150 mM NaCl, 3 mM EDTA, and 0.05% v/v Surfactant Tween-20; pH 7.4 (HBS-ET) running buffer at 25° C. The Biacore sensor surface was first derivatized by amine coupling with a monoclonal mouse anti-VEGFR1 antibody (REGN18) to capture VEGF mini-trap constructs. Binding studies were performed on the following human VEGF reagents: human VEGF₁₆₅. […] Dissociation of bound VEGF₁₆₅ reagent from VEGF mini-trap constructs was monitored for 60 minutes in HBS-ET running buffer. Kinetic association (ka) and dissociation (kd) rate constants were determined by fitting the real-time sensorgrams to a 1:1 binding model using Scrubber 2.0c curve fitting software. Binding dissociation equilibrium constants (KD) and dissociative half-lives (t1/2) were calculated from the kinetic rate constants as: […]

[2] = molecular target: T1, Human VEGF165 (REGN110); assay: cell-based or functional assay
[3] = molecular target: T2, Human VEGF121 (R&D SYSTEMS Cat #4644-VS) (human, UniProt P15692-9 27-147); assay: cell-based or functional assay
T2 sequence (looked up): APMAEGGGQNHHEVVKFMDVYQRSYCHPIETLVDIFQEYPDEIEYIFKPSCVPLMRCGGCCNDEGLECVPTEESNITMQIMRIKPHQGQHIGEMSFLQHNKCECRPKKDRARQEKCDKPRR

[4] = molecular target: T1, Human VEGF165 (REGN110); assay: cell-based or functional assay; remark: listed apart in the source
[5] = molecular target: T2, Human VEGF121 (R&D SYSTEMS Cat #4644-VS); assay: cell-based or functional assay; remark: listed apart in the source
[6] = molecular target: T1, Human VEGF165 (REGN110); assay: SPR, 25C, trap captured by REGN18, hVEGF165 injected
Experimental: as §1

B1: REGN3, VEGF Trap hIgG1 Fc (aflibercept) (Fc fusion)
chain: SDTGRPFVEMYSEIPEIIHMTEGRELVIPCRVTSPNITVTLKKFPLDTLIPDGKRIIWDSRKGFIISNATYKEIGLLTCEATVNGHLYKTNYLTHRQTNTIIDVVLSPSHGIELSVGEKLVLNCTARTELNVGIDFNWEYPSSKHQHKKLVNRDLKTQSGSEMKKFLSTLTIDGVTRSDQGLYTCAASSGLMTKKNSTFVRVHEK[human IgG1 Fc omitted]
notes: also called Eylea
[1]
  2.5 nM hVEGF165 Bound (RU): 4.7 RU
  Kd: 1.8 pM
  koff: 1.7e-05 s⁻¹
  kon: 9.7e+06 M⁻¹ s⁻¹
  t½: 11.3 h
[2]
  IC50, VEGFR1 40 pM VEGF165 (REGN110) (luciferase): 1.49e-11 M
[3]
  IC50, VEGFR1 40 pM R&D VEGF121 (luciferase): 1.12e-11 M
[4]
  IC50, Inhibition of 20 pM VEGF165, VEGFR1 assay (luciferase): 3.1e-11 M
[5]
  IC50, Inhibition of 20 pM VEGF121, VEGFR1 assay (luciferase): 2.15e-11 M
[6]
  2 nM VEGF165 Bound (RU): 12 RU
  Kd: 1 pM
  koff: ≤ 1e-05 s⁻¹
  kon: 9.98e+06 M⁻¹ s⁻¹
  t½: ≥ 19.2 h
